Biological target: the molecule itself
Assay: SEC

B1: Neisseria meningitidis 3-deoxy-D-arabino-heptulosonate 7-phosphate synthase, wild type (enzyme)
chain: not shown
notes: 3-deoxy-D-arabino-heptulosonate 7-phosphate synthase (type I alpha DAH7PS) of Neisseria meningitidis; theoretical mass of a single chain 38.7 kDa; Homotetramer (dimer of tight dimers) in solution and in the crystal; also called NmeDAH7PS; NmeDAH7PS^WT; source: purified as previously described [12]
stoichiometry N: 4
